# Measured values: the supplement of paper PMC12297408
# Where a name gives a salt, the structure may show the parent alone. Out of some 1,300 compounds screened, about 40 (3%) showed activity. Some of the results follow.
# Test system: Plasmodium falciparum NF54/iGP1_RE9H ulg8 stage V gametocytes
# Assay: gametocyte viability (luciferase signal relative to DMSO control) (% of DMSO control); higher = less gametocytocidal activity, active = 50 or less
# Settings: exposure time: 72 h
# Summary of the method: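 Stage V gametocytes of the NF54/iGP1_RE9Hulg8 line (day 12; ~2.5% gametocytemia, 3% hematocrit), in medium containing 0.5% Albumax II, were dispensed into 96-well plates with compounds spotted in nanolitre volumes from 10 mM DMSO stocks, for final concentrations of 10 µM or 1 µM in a single well each. After 72 h at 37 °C, 90 µl from each well was combined with 10 µl D-luciferin (30 mg/ml), and luminescence was measured on an IVIS Lumina II. Viability was expressed against the mean of the DMSO vehicle wells on the same plate.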
Structure (SMILES),gametocyte viability (concentration: 1 µM),gametocyte viability (concentration: 10 µM)
C#C[C@]1(O)CC[C@H]2[C@@H]3CCc4cc(OC)ccc4[C@H]3CC[C@@]21C [Ethynylestradiol 3-methyl ether],inactive: 98.5,inactive: 94.7
CC(C)NCC(O)c1ccc(NS(C)(=O)=O)cc1 (centres undefined) [Sotalol hydrochloride],inactive: 83.1,inactive: 92.1
CC(=O)N1CCN(c2ccc(OCC3COC(Cn4ccnc4)(c4ccc(Cl)cc4Cl)O3)cc2)CC1 (centres undefined) [Ketoconazole],inactive: 90.3,inactive: 90
CN(CCOc1ccc(NS(C)(=O)=O)cc1)CCc1ccc(NS(C)(=O)=O)cc1 [Dofetilide],inactive: 83.4,inactive: 71.8
CCN(CC)CCCC(C)Nc1c2ccc(Cl)cc2nc2ccc(OC)cc12 (centres undefined) [Quinacrine dihydrochloride dihydrate],inactive: 113,active: 44.5
CCCCCCCCCCCCCCCC[N+](C)(C)CCN(Cc1ccc(OC)cc1)c1ncccn1 [Thonzonium bromide],inactive: 77,active: 1.76
CNC(=C[N+](=O)[O-])NCCSCc1ccc(CN(C)C)o1 [Ranitidine hydrochloride],inactive: 94,inactive: 95.9
CC(C)C[C@H](NC(=O)[C@@H](O)[C@H](N)Cc1ccccc1)C(=O)O [Ubenimex],inactive: 81.9,inactive: 80.6
COC(=O)[C@H]1[C@H]2C[C@@H]3c4[nH]c5cc(OC)ccc5c4CCN3C[C@H]2C[C@@H](OC(=O)c2cc(OC)c(OC)c(OC)c2)[C@@H]1OC [Reserpine],inactive: 95.9,inactive: 79.8
CCOC(=O)Nc1ccc2c(c1)N(C(=O)CCN1CCOCC1)c1ccccc1S2 [Moricizine hydrochloride],inactive: 84.5,inactive: 81.2
CC(C)(O/N=C(\C(=O)N[C@@H]1C(=O)N2C(C(=O)[O-])=C(C[n+]3ccccc3)CS[C@H]12)c1csc(N)n1)C(=O)O [Ceftazidime pentahydrate],inactive: 91.4,inactive: 98.9
Cc1ccc(/C(=C\CN2CCCC2)c2ccccn2)cc1 [Triprolidine hydrochloride],inactive: 93.8,inactive: 94.3
Cc1c(Cl)cccc1Nc1ncccc1C(=O)O [Clonixin Lysinate],inactive: 81.2,inactive: 80.2
C[C@H]1[C@H](NC(=O)/C(=N\OC(C)(C)C(=O)O)c2csc(N)n2)C(=O)N1S(=O)(=O)O [Aztreonam],inactive: 96.9,inactive: 96
CNCCC=C1c2ccccc2CCc2ccccc21 [Nortriptyline hydrochloride],inactive: 90,inactive: 81.1
CCc1c2c(nc3ccc(OC(=O)N4CCC(N5CCCCC5)CC4)cc13)-c1cc3c(c(=O)n1C2)COC(=O)[C@]3(O)CC [Irinotecan Hydrochloride],inactive: 80.9,inactive: 68.9
CC(=O)Nc1c(I)c(NC(C)=O)c(I)c(C(=O)O)c1I [Diatrizoic acid dihydrate],inactive: 80.4,inactive: 84.5
CCc1cc(C(N)=S)ccn1 [Ethionamide],inactive: 83.3,inactive: 88.3
CCC(=O)[C@@]1(C)[C@H](C)C[C@H]2[C@@H]3CCC4=CC(=O)C=C[C@]4(C)[C@H]3[C@@H](O)C[C@@]21C [Rimexolone],inactive: 89.4,inactive: 85.3

Structure (SMILES),gametocyte viability (concentration: 1 µM),gametocyte viability (concentration: 10 µM)
O=C(N/N=C/c1ccc([N+](=O)[O-])o1)c1ccc(O)cc1 [Nifuroxazide],inactive: 95.9,active: 30.6
CN1CCN(C(c2ccccc2)c2ccc(Cl)cc2)CC1 (centres undefined) [Chlorcyclizine hydrochloride],inactive: 96.9,inactive: 91.7
C[C@@H]1CN(c2c(F)c(N)c3c(=O)c(C(=O)O)cn(C4CC4)c3c2F)C[C@H](C)N1 [Sparfloxacin],inactive: 99.5,inactive: 99.4
CC[C@]12CCCN3CCc4c(n(c5ccccc45)C(=O)C1)[C@@H]32 [Eburnamonine (-)],inactive: 86,inactive: 80
CCn1cc(C(=O)O)c(=O)c2cc(F)c(N3CCN(C)CC3)cc21 [Pefloxacine],inactive: 89.6,inactive: 88.7
CCn1cc(C(=O)O)c(=O)c2cc(F)c(N3CCNC(C)C3)c(F)c21 (centres undefined) [Lomefloxacin hydrochloride],inactive: 84.7,inactive: 90.8
COc1cc(C)nc(-n2nc(C)cc2OC)n1 [Epirizole],inactive: 89.3,inactive: 96
CS(=O)(=O)Nc1ccc([N+](=O)[O-])cc1Oc1ccccc1 [Nimesulide],inactive: 85.9,inactive: 88.3
CNC(=C[N+](=O)[O-])NCCSCc1csc(CN(C)C)n1 [Nizatidine],inactive: 87.6,inactive: 89.3
C[C@]12C=CC(=O)C=C1CC[C@@H]1[C@@H]2C(=O)C[C@@]2(C)[C@H]1CC[C@]2(O)C(=O)CO [Prednisone],inactive: 85.1,inactive: 80.3
COc1cc(C)c(/C=C/C(C)=C/C=C/C(C)=C/C(=O)O)c(C)c1C [Acitretin],inactive: 89,inactive: 88.6
CC(C)OC(=O)CCC/C=C\C[C@@H]1[C@@H](CC[C@@H](O)CCc2ccccc2)[C@H](O)C[C@@H]1O [Latanoprost],inactive: 92.8,inactive: 91.4
CN(C)CCc1c[nH]c2ccc(C[C@H]3COC(=O)N3)cc12 [Zolmitriptan],inactive: 83.8,inactive: 81.7
CN(C)CCC=C1c2ccccc2C=Cc2ccccc21 [Cyclobenzaprine hydrochloride],inactive: 82.8,inactive: 84.9
C[N+]1(C)CCC(=C(c2ccccc2)c2ccccc2)CC1 [Diphemanil methylsulfate],inactive: 87,inactive: 83
NS(=O)(=O)c1cc2c(cc1Cl)NCNS2(=O)=O [Hydrochlorothiazide],inactive: 91.9,inactive: 97.7
CNNCc1ccc(C(=O)NC(C)C)cc1 [Procarbazine hydrochloride],inactive: 91.7,inactive: 89.4
O=c1[nH]c(=O)n([C@H]2C[C@H](O)[C@@H](CO)O2)cc1F [Floxuridine],inactive: 81.9,inactive: 88.5
CC(=O)Oc1cc(C(C)C)c(OCCN(C)C)cc1C [Moxisylyte hydrochoride],inactive: 79.4,inactive: 82.4

Structure (SMILES),gametocyte viability (concentration: 1 µM),gametocyte viability (concentration: 10 µM)
CC(c1cc2ccccc2s1)N(O)C(N)=O (centres undefined) [Zileuton],inactive: 90.7,inactive: 85.3
CN(C)CCCOc1nn(Cc2ccccc2)c2ccccc12 [Benzydamine hydrochloride],inactive: 80,inactive: 83.3
C#C[C@]1(O)CC[C@H]2[C@@H]3[C@H](C)CC4=C(CCC(=O)C4)[C@H]3CC[C@@]21C [Tibolone],inactive: 94.5,inactive: 81.3
CC(=O)OCC(=O)[C@@]1(O)CC[C@H]2[C@@H]3CCC4=CC(=O)C=C[C@]4(C)[C@@]3(F)[C@@H](O)C[C@@]21C [Isoflupredone acetate],inactive: 87,inactive: 86.1
COc1cc(C(=O)N2CCOCC2)cc(OC)c1OC [Trimetozine],inactive: 81.7,inactive: 80.2
COc1cc2nc(N3CCN(C(=O)C4CCCO4)CC3)nc(N)c2cc1OC (centres undefined) [Terazosin hydrochloride],inactive: 96.5,inactive: 92.6
"CC1(O)CCOC(=O)C1 (centres undefined) [Mevalonic-D, L acid lactone]",inactive: 86.7,inactive: 93.8
Nc1ccc(S(=O)(=O)Nc2ccc(Cl)nn2)cc1 [Sulfachloropyridazine],inactive: 82.7,inactive: 87.1
O=C(O)Cc1ccc(-c2ccccc2)cc1 [Felbinac],inactive: 89.9,inactive: 85.2
C[C@@H]1C[C@H]2[C@@H]3C[C@H](F)C4=CC(=O)C=C[C@]4(C)[C@@]3(F)[C@@H](O)C[C@]2(C)[C@@]1(O)C(=O)CO [Flumethasone],inactive: 86.5,inactive: 90.2
O=C(O)c1cn(-c2ccc(F)cc2)c2cc(N3CCNCC3)c(F)cc2c1=O [Sarafloxacin],inactive: 89.8,inactive: 93.3
CN1CCN(C2=Nc3ccccc3Oc3ccc(Cl)cc32)CC1 [Loxapine succinate],inactive: 94,inactive: 87.1
N=C(NCCCCCCNC(=N)NC(=N)Nc1ccc(Cl)cc1)NC(=N)Nc1ccc(Cl)cc1 [Chlorhexidine],inactive: 92.1,active: 1.08
NCc1ccccc1CC(=O)N[C@@H]1C(=O)N2C(C(=O)O)=C(CSc3nnnn3CC(=O)O)CS[C@H]12 [Ceforanide],inactive: 93.3,inactive: 93.4
C[N+]1(C)CCC(OC(=O)C(O)(c2ccccc2)C2CCCC2)C1 (centres undefined) [Glycopyrrolate],inactive: 83,inactive: 87.6
N#Cc1ccc(C(c2ccc(C#N)cc2)n2cncn2)cc1 [Letrozole],inactive: 89.7,inactive: 86.5
Clc1ccc(CCC(Cn2ccnc2)Sc2c(Cl)cccc2Cl)cc1 (centres undefined) [Butoconazole nitrate],inactive: 87.9,inactive: 64
CC1c2cccc(O)c2C(O)=C2C(=O)C3(O)C(O)=C(C(N)=O)C(=O)C(N(C)C)C3C(O)C21 (centres undefined) [Doxycycline hydrochloride],inactive: 94.5,inactive: 92.2
CN(C)CCCN1c2ccccc2Sc2ccc(C(F)(F)F)cc21 [Triflupromazine hydrochloride],inactive: 83.7,inactive: 81.5
